In assay [1] the target is T1, RBFOX1 RRM RbFoxmut (Fox-RRM*) (Homo sapiens, UniProt Q9NWB1 109-208, R118D;E147R;N151S;E152T).
T1 sequence: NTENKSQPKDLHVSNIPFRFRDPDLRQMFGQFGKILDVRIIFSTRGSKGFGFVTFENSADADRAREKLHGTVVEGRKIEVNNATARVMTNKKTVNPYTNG
Put plainly: competition; 10 mM Tris pH 7.5, 150 mM NaCl, 3.4 mM EDTA, 0.001% NP-40, 30 C. The note with it: tags: His6 N-terminal (pET28a).

Assay [2] addresses T1, RBFOX1 RRM RbFoxmut (Fox-RRM*). Put plainly: EMSA; HiTS-Eq, 1 nM pool, 10 min; buffer printed only for the single-RNA assays: 10 mM Tris pH 7.5, 150 mM NaCl, 3.4 mM EDTA, 0.001% NP-40, 30 C. The conditions noted are these: tags: His6 N-terminal (pET28a); label: 5' 32P. The method in brief: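 These values rest on relative association constants, computed from read-count changes of each RNA species versus the control reaction and normalised to the cognate motif. Reads came from free RNA recovered by 8% native PAGE after purified RbFox RRM (wild type or mutant) at increasing concentrations was equilibrated for 10 min in 50 µL with 1 nM of a 5′-radiolabelled pool with 7 randomized nucleotides and DNA-annealed flanks.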

Our source for the binding signal values is article PMC9911399, “Two distinct binding modes provide the RNA-binding protein RbFox with extraordinary sequence specificity”.

Residue numbers refer to the chain shown, from its start. The list shows a part of the results.

For the molecule UACAUGU (ssRNA), the binding signal in assay [1] is 2140 nM.

B1: UAAAUCC (DNA:RNA)
RNA: GGGAGACCGGAAUUCAGAUUGUCCUAAAUCCUUAAAUCCCGUCGUAGCCACCA
DNA 1: CAATCTGAATTCCGGTCTCCC
DNA 2: TGGTGGCTACGACGGGATT
Turning to B1, in assay [2], the binding signal is 0.0484 KA relative to UGCAUGU.

B2: AUGUGCA (DNA:RNA)
RNA: B1 RNA with U25A, A26U, A27G, A28U, U29G, C31A
DNA 1: CAATCTGAATTCCGGTCTCCC
DNA 2: TGGTGGCTACGACGGGATT
Turning to B2, the binding signal in assay [2] was 0.217 KA relative to UGCAUGU.

B3: AAGACGC (DNA:RNA)
RNA: B1 RNA with U25A, A27G, U29C, C30G
DNA 1: CAATCTGAATTCCGGTCTCCC
DNA 2: TGGTGGCTACGACGGGATT
With B3, the binding signal in assay [2] is 0.0546 KA relative to UGCAUGU.

B4: UUCGAAG (DNA:RNA)
RNA: B1 RNA with A26U, A27C, A28G, U29A, C30A, C31G
DNA 1: CAATCTGAATTCCGGTCTCCC
DNA 2: TGGTGGCTACGACGGGATT
Turning to B4, the binding signal in assay [2] was 0.097 KA relative to UGCAUGU.

B5: AAUGGUU (DNA:RNA)
RNA: B1 RNA with U25A, A27U, A28G, U29G, C30U, C31U
DNA 1: CAATCTGAATTCCGGTCTCCC
DNA 2: TGGTGGCTACGACGGGATT
Consider B5, for which the binding signal in assay [2] was 0.0746 KA relative to UGCAUGU.

B6: UGAACGG (DNA:RNA)
RNA: B1 RNA with A26G, U29C, C30G, C31G
DNA 1: CAATCTGAATTCCGGTCTCCC
DNA 2: TGGTGGCTACGACGGGATT
In the case of B6, in assay [2], the binding signal is 0.106 KA relative to UGCAUGU.

B7: UGGGCAU (DNA:RNA)
RNA: B1 RNA with A26G, A27G, A28G, U29C, C30A, C31U
DNA 1: CAATCTGAATTCCGGTCTCCC
DNA 2: TGGTGGCTACGACGGGATT
In the case of B7, in assay [2], the binding signal is 0.113 KA relative to UGCAUGU.

B8: CGACACA (DNA:RNA)
RNA: B1 RNA with U25C, A26G, A28C, U29A, C31A
DNA 1: CAATCTGAATTCCGGTCTCCC
DNA 2: TGGTGGCTACGACGGGATT
As to B8, the binding signal in assay [2] is 0.0793 KA relative to UGCAUGU.

B9: UUGUAUG (DNA:RNA)
RNA: B1 RNA with A26U, A27G, A28U, U29A, C30U, C31G
DNA 1: CAATCTGAATTCCGGTCTCCC
DNA 2: TGGTGGCTACGACGGGATT
In the case of B9, the binding signal in assay [2] was 1.24 KA relative to UGCAUGU.

B10: GUUGCCC (DNA:RNA)
RNA: B1 RNA with U25G, A26U, A27U, A28G, U29C
DNA 1: CAATCTGAATTCCGGTCTCCC
DNA 2: TGGTGGCTACGACGGGATT
With B10, the binding signal in assay [2] was 0.0668 KA relative to UGCAUGU.

B11: CUAUAAC (DNA:RNA)
RNA: B1 RNA with U25C, A26U, A28U, U29A, C30A
DNA 1: CAATCTGAATTCCGGTCTCCC
DNA 2: TGGTGGCTACGACGGGATT
For the molecule B11, the binding signal in assay [2] is 0.0637 KA relative to UGCAUGU.

B12: CACCCCU (DNA:RNA)
RNA: B1 RNA with U25C, A27C, A28C, U29C, C31U
DNA 1: CAATCTGAATTCCGGTCTCCC
DNA 2: TGGTGGCTACGACGGGATT
As for B12, the binding signal in assay [2] is 0.0705 KA relative to UGCAUGU.

B13: UCCCUGA (DNA:RNA)
RNA: B1 RNA with A26C, A27C, A28C, C30G, C31A
DNA 1: CAATCTGAATTCCGGTCTCCC
DNA 2: TGGTGGCTACGACGGGATT
B13: the binding signal in assay [2] was 0.103 KA relative to UGCAUGU.

B14: GGGCACC (DNA:RNA)
RNA: B1 RNA with U25G, A26G, A27G, A28C, U29A
DNA 1: CAATCTGAATTCCGGTCTCCC
DNA 2: TGGTGGCTACGACGGGATT
As for B14, the binding signal in assay [2] was 0.11 KA relative to UGCAUGU.

B15: CGGACUU (DNA:RNA)
RNA: B1 RNA with U25C, A26G, A27G, U29C, C30U, C31U
DNA 1: CAATCTGAATTCCGGTCTCCC
DNA 2: TGGTGGCTACGACGGGATT
Turning to B15, the binding signal in assay [2] is 0.0634 KA relative to UGCAUGU.

B16: UACUCGC (DNA:RNA)
RNA: B1 RNA with A27C, A28U, U29C, C30G
DNA 1: CAATCTGAATTCCGGTCTCCC
DNA 2: TGGTGGCTACGACGGGATT
As for B16, in assay [2], the binding signal is 0.0793 KA relative to UGCAUGU.

B17: GUUAAGA (DNA:RNA)
RNA: B1 RNA with U25G, A26U, A27U, U29A, C30G, C31A
DNA 1: CAATCTGAATTCCGGTCTCCC
DNA 2: TGGTGGCTACGACGGGATT
For the molecule B17, in assay [2], the binding signal is 0.0747 KA relative to UGCAUGU.

B18: CACAUCG (DNA:RNA)
RNA: B1 RNA with U25C, A27C, C31G
DNA 1: CAATCTGAATTCCGGTCTCCC
DNA 2: TGGTGGCTACGACGGGATT
Take B18: the binding signal in assay [2] is 0.108 KA relative to UGCAUGU.

B19: CUAAGAU (DNA:RNA)
RNA: B1 RNA with U25C, A26U, U29G, C30A, C31U
DNA 1: CAATCTGAATTCCGGTCTCCC
DNA 2: TGGTGGCTACGACGGGATT
Take B19: the binding signal in assay [2] is 0.085 KA relative to UGCAUGU.
